# Changes are numbered by the printed parent chain.
# B1: open-stabilized GAIM-Ig fusion protein PB108 (Fc fusion)
# chain: MAETVESCLAKPHTENSFTNVWKEGDSRYANYEGCLWNAGGVVVCTGDETQCYGHWVPIGLAIPENEGGGSEGGGSEGGGSEGGGTKPPEYGDTPIPGYTYINPLDGTYPPGTEQNPANPNPSLEESQPLNTFMFQGNRFRNRQGALTVYTGTFTQGTDPVKTYYQYTPVSSRAMYDAYWNGKFRDCAFHSGFNEDPFVCEYQGQSSDLPQPPANAGGESGGGSGGGSEGGGSEGGGSEGGGSEGGGSGGGSGSGARS[letters of human IgG1 Fc not shown]
# notes: also called representative open-stabilized GAIM-Ig fusion
# B2: GAIM-Ig fusion protein PB120 (Fc fusion)
# chain: MAETVESCLAKPHTENSFTNVWKDDKTLDRYANYEGCLWNAGGVVVCTGDETQCYGTWVPIGLAIPENEGGGSEGGGSEGGGSEGGGTKPPEYGDTPIPGYTYINPLDGTYPPGTEQNPANPNPSLEESQPLNTFMFQNNRFRNRQGALTVYTGTFTQGTDPVKTYYQYTPVSSRAMYDAYWNGKFRDCAFHSGFNEDPFVCEYQGQSSDLPQPPANAGGESGGGSGGGSEGGGSEGGGSEGGGSEGGGSGGGSGSGARS[letters of human IgG1 Fc not shown]
# notes: also called control scaffold; GAIM scaffold
# B3: open-stabilized GAIM-Ig fusion protein PB109 (Fc fusion)
# chain: B1 chain with T50H, H55T, N142A
# B4: open-stabilized GAIM-Ig fusion protein PB110 (Fc fusion)
# chain: B1 chain with T50H, H55T, G137N, N142A, R143V, Q144N, A146V
# B5: open-stabilized GAIM-Ig fusion protein PB114 (Fc fusion)
# chain: B1 chain with G137N, N142A, R143V, Q144N, A146V
# B6: open-stabilized GAIM-Ig fusion protein PB122 (Fc fusion)
# chain: B1 chain with G137N, R143V, Q144N, A146V
# B7: open-stabilized GAIM-Ig fusion protein PB116 (Fc fusion)
# chain: B1 chain with N142A
# B8: open-stabilized GAIM-Ig fusion protein PB105 (Fc fusion)
# chain: B1 chain with T50H, H55T
# B9: open-stabilized GAIM-Ig fusion protein PB127 (Fc fusion)
# chain: B1 chain with N38A, T50H, H55T
# Molecular target: T1, Aβ1-42 fibers (human, UniProt P05067 in part)
# T1 construct: domain: Aβ1-42; also called fAβ42; Aβ42 fibers
# Test: SPR
row,Binder,Kd [nM]
1,B1,0.5

# Molecular target: Wild-type TTR aggregates (UniProt P02766)
# Test: ELISA on aggregates
row,Binder,EC50 [nM]
1,B1,7
2,B2,105

# Molecular target: T2, LC lambda_1 (variable + constant)
# T2 construct: also called immunoglobulin light chain (LC) aggregates
# Test: ELISA on aggregates
row,Binder,EC50 [nM]
1,B1,24

# Molecular target: T3, LC lambda_1 (variable)
# T3 construct: also called immunoglobulin light chain (LC) aggregates
# Test: ELISA on aggregates
row,Binder,EC50 [nM]
1,B1,1.3

# Molecular target: T4, LC lambda_2 (variable)
# T4 construct: also called immunoglobulin light chain (LC) aggregates
# Test: ELISA on aggregates
row,Binder,EC50 [nM]
1,B1,19

# Molecular target: T1, Aβ1-42 fibers
# Test: cell-based or functional assay
# T1 sequence (P05067 672-713 limits assumed): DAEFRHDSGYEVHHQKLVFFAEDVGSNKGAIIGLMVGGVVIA
row,Binder,fAβ42 Remodeling (%)
1,B1,87
2,B3,82
3,B4,92
4,B5,86
5,B6,80
6,B7,82

# Molecular target: T1, Aβ1-42 fibers
# Test: ELISA on coated fibers
row,Binder,EC50 [nM]
1,B1,0.8
2,B2,18

# Molecular target: T5, TauK18P301L fibers (human, UniProt P10636-8 244-372)
# T5 construct: range 244-372; also called fTauKL; TauKL
# Test: ELISA on coated fibers
row,Binder,EC50 [nM]
1,B1,14
2,B2,59

# Molecular target: T1, Aβ1-42 fibers
# Test: ELISA on coated Aβ42 fibers; column head 'fAβ42 Binding (nM)'
row,Binder,EC50 [nM]
1,B1,1
2,B8,0.8
3,B3,0.8
4,B4,0.9
5,B5,0.9
6,B6,1.3
7,B9,0.8
8,B7,0.8

# Molecular target: T5, TauK18P301L fibers
# Test: ELISA on coated TauK18P301L fibers; column head 'fTauKL Binding (nM)'
# T5 sequence (P10636 561-689 P618L limits assumed): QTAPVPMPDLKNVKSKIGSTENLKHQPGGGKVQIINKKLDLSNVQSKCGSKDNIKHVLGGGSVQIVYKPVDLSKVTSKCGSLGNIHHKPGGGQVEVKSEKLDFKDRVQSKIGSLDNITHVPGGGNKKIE
row,Binder,EC50 [nM]
1,B1,15
2,B3,5.2
3,B4,7.6
4,B5,8.7
5,B6,24
6,B7,7

# Reference: patent US20230279064A1 (published 2023)
